B1: LINE1-mini (parent)
chain: GGCAGAGCUCAACACAGCGUGGCAAAGUGGCUGUGGCUAGACUGCC

The source gives no read counts; variants with many changes may rest on few reads.

The series covers variants of B1. The series can be described thus: self-cleavage, relative activity (ratio to wild type); higher = more cleavage; in vitro, sequencing; the parent is a self-cleaving ribozyme.
Take GGGAGAGCUCAACACAGCGAGGCAAAGUGGCUGUGGAUAGGCUGCC: the self-cleavage came to 0.05. The result for GGUGGAGUUCAACGCAGCGUGAUAAAGUGGCUGUGGCUAGACUGCC reads 0.08; that for GGUGGAGCUCGACACAGCGUGGCAAAGUGGCUGUGGCAAGACUGCC, 0.03. With GGUCGAGCUCAACACAGCGUGGCAAAGUGGCUGGGGCUAGACUGCC the figure was 0.02. For the variant GGUGGACCUCAAUUCAGCGUGACGAAGUGGCUGUGGCUAGACUGCC, the self-cleavage amounted to 0.08. The result for GGGAGAGCACAACACAGCGUGGCAAAGUGGAUGUGGCUAGACCGCC reads 0.2. The result for GGGAGAGCCCAACACAGCGUGGCAAAGUGGCUCUGGCUAGACUGCC reads 0.1; that for GGUCGAGCUCAACGCAGCGUGGCAAAGUUACUGUGCCUAGACUGCA, 1. With GGGAGAGCCCAAAACAUCGUGGCAAAGCGGCUGUGGCUAGACUGCC the figure was 0.02; with GGGAGAGCUCAACACAGCGUGGCAAAGUAGCUGUGACUAGACUGCC, 0.28; with GGGAGAGCUCAACACAGCGUGGCAAAGUGGCUGCGCCCCGAGUUCC, 0. As for GGUGGAGCUCAACACAACGUGGCAAAGUGGCUGUGGCUAGACUGCC, the self-cleavage turned out to be 0.1. GGGAGAGCUCAACACAGCGUGGCAAAGUGGCCGUGGCUAGACAGCC: the self-cleavage amounted to 0.11.

Take GGGAGAGCUCAACACAGCGUGGCAAAGUAGCUGUGGCUACACUGCU: the self-cleavage was 0.03. The result for GGUCGAGCUUAACGCAGCGUGGCAAAGUGGCUGUGGCUAGACUGCC reads 0.06. The result for GGGAGAGCUCAACACAGCGUGGCAAAGUGGCUGUGGCCAGACCGCC reads 0.11; that for GGUGGAGCUCAACACAGCAUGGCAAAGUGGCUGUGGCUAGACUGCC, 0.06; that for GGUCGAGCUCAACACAGCAUGGCAAAGUGGCUGUGGUUAGACUGCC, 0.04.

As to GGGAGAGCUCAACACAGCGGGGCAAUGUCGGUGUAGCUAGACUGCC, the self-cleavage worked out at 0.08. With GGGAGAGCUCAACACAGCGAGGCAAAGUGGCUGGGGCUAAACUGCA the figure was 0.03; with GGUGGAGCUCAACACAGCGUGGCAACGUGGCUGCGGCAAGACUGAC, 0.11; with GGGAGAGCGCAACACAGAGUGGCAAAGCGGAUGUGGCCAGACUGCC, 0.05. With GGGAGAGCUCAACACAGCGUGGCAAAGUGGCUGUAGCAAGACUGCC the figure was 0.19. With GGUCGAGCUCAACACAGCGUGGCAAGGUUGCUGUGGCUAGACUGCC the figure was 0.01. On to GGGAGAGCUCAACACAGCGUGGCAAAGUGUCUGUGGCUAGACUGCU, for which the self-cleavage came to 0.06. With GGGAGAGCUCAACACAGCGUGGCAAAGUCGCUGGGGCUAGACUGCC the figure was 0.03; with GGGAGAGCUCAACACAGCGUGGCAAAGUGGCUGUGGCUAGACGGUC, 0.02.

On to GGGAGAGCUCAACACAGCGUGGCAAAGAGGCUUUGGCUAGACUGCC, for which the self-cleavage stood at 0.07. Regarding GGUGGAGCUCAACACAGCGUUGCAAAGAGGCAGUGGCCAGACUGCC, the self-cleavage is 0.05. With GGGAGAGCCCAACACAGCGUGGCAAAGUGGCUGUGGCAAGACUGCC the figure was 0.02; with GGGAGAGCUCAACACAGCGUGGCAAAGUGGCUGUAUCUAGACUGCC, 0.96.

For the variant GGUGGAGCUCAACACAGCGUGGCAAAGUGGCUGUAGCUAGACUUCC, the self-cleavage worked out at 0.04. With GGGAGAGCCCAACACAGCGUGGCAAAGUGACUGUGGCUAGACUGCC the figure was 0.09; with GGGAGAGCUCAACACAGCGUGGCAAAGGGGCUAUUGCCAUAUUGCC, 0.04. For the variant GGGAGAGCUCAACACAGCGUGGCAAAGUCACUGUGGCUAGACUGCG, the self-cleavage was determined as 0.05. Take GGGAGAGCACAACUCAGCGUGGCAAAGUUGCUGUGGCGAGACUGCC: the self-cleavage came to 0.25. The result for GGUGGAGCUCAACACAGCGUGGCAAAGUGGCUGUGGCUAGACUGCU reads 0.12.

For GGUGGAGCACAACACAGCGUGGCAAAGUGGCUGUAGCUAGACUGCC, the self-cleavage stood at 0.39. With GGUUGAGCUCAAGACGGCGUGGCAAAGUGGCUGUAGCUAGACUACC the figure was 0.04; with GGUGGAGCUCAACACAGCGUGGCAAAGUAGCUGCGGCUAGACUGCC, 0.15; with GGUGGAGCUCAACACUGCGUGGCAAAGUGGCUGUGGCUUGAUUGCC, 0.1. With GGGAGAGCUCAACACAGCGUGGCAAAGUGGCUGAGGCAAGACUGCC the figure was 0.05; with GGGAGAGCUCAACACAGCGUGGCAAAGUGGCUGUCUCUAGACUGCC, 0.03.

On to GGGAGAGCCCAACACAGCGUGGCAAAGUAGCUGUGGCUAGACAGCC, for which the self-cleavage worked out at 0.01. With GGUGGAGCUCAACUCAGCGAGGCAAAGUGGCUGUGGCUAGACUGCC the figure was 0.08; with GGGAGAGCUCAACACAGCGUGGCAAAGUGACUGUGGCUAGACUCCG, 0.58; with GGGAGAGCUCAACACAGCGUGGCAAAGUGGCUGUGGCUACACUGCA, 0.2.

For GGGAGAGCUCAACACAGCGUGGCAAAGUGGCUGUGGCUACACUGCU, the self-cleavage came out at 0.05. With GGGAGAGCUCAACACAGCGUGGCAAAGUGGCUGGGGCUAGACAGCC the figure was 0.03; with GGGAGAGCUCAACACAGCGUGGCAAAGUGGCUGUAGCUACACUGCC, 0.02; with GGGAGAGCUCAACACAGCGUGGCAAAGUGGCUGUGGCAAGCCUGCC, 0.11. With GGGAGAGCGCAACACAGCGUGGCAAAGUGGGAGUGGGUAGACUGCC the figure was 0; with GGGAGAGCUCAACACAGCGUGGCAAAGAGUCUGUGGCUAGACUGCC, 0.4.

For GGGAGAGCGCAACACAGCGUGGCAAAGUGGCUUUGGCUAAAUUGCC, the self-cleavage was found to be 0.11. With GGUGGAGCUAAACGCAGCGUGGCAAAGUGGCUGUGGCUAGACUGCC the figure was 0.03; with GGGAGAGCCGAACACGGCGUGGAAAAGUGGAUGUGGCUUGACUGCC, 0.01.

Values taken from the RNAGym collection of RNA variant scans (doi:10.7554/elife.90254).
